# Among all 73,000 compounds or so, about 2,500 (3.4%) were called active. Inconclusive means that the source gave no clear call. Such entries were picked first, then a sample of the others. Calls follow the shape of the dose curve; as a rule, active = well fitted inhibition curve with a large enough effect; inconclusive = small, poorly fitted or top-dose-only effect; inactive = no such curve, though single readings can be large or run the other way. Potencies of inconclusive entries are doubtful fits and often do not repeat.
# Target: 3-hydroxyacyl-CoA dehydrogenase type-2 (Homo sapiens) (UniProt Q99714)
# Sequence of UniProt Q99714 (Q99714 whole entry, looked up): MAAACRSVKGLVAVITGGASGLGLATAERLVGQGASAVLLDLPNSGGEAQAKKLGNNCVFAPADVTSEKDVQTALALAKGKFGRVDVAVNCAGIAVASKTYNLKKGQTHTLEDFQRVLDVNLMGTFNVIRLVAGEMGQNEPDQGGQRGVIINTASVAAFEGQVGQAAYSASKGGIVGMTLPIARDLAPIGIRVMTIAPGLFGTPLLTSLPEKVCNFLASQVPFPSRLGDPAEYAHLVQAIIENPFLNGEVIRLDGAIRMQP
# Sequence of UniProt Q99714 (Q99714 whole entry, looked up): as above
# Assay: qHTS Assay for Inhibitors of HADH2 (Hydroxyacyl-Coenzyme A Dehydrogenase, Type II); also: nearly all actives have a fitted effect of over 60% in size
# Conditions: recombinant HADH2, NADH fluorescence, beta-hydroxybutyryl-CoA; activity change, negative = inhibition: at 57.1 µM (top of the series)
# Outline: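 Read-out: 360 nm excitation, 450 nm emission, kinetic over 4 min. Conditions: His-tagged human HADH2 20 nM, pH 9.0 Tris with Tween-20, 1 mM NAD+, 90 uM beta-hydroxybutyryl-CoA.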
# % is scaled to controls: 0 for no effect and ±100 for the full control effect; potency is read from the fitted curve at half-maximal effect; tags tell the direction and shape of the fitted curve.
Compound,Potency,"activity change, negative = inhibition"
COc1ccc2[nH]c(=O)c(CN(Cc3ccco3)Cc3nnnn3Cc3ccccc3)cc2c1,"inconclusive: 39.8 µM [inhibitor, single point]",
Cc1ccc(S(=O)(=O)NC(C)C(=O)NC2CCCCCC2)cc1 (stereo not drawn),"inconclusive: 31.6 µM [inhibitor, single point]",
Cn1c(=O)n(C)c2cc(CNc3ccc(N4CCOCC4)c(C(=O)O)c3)ccc21,"inconclusive: 39.8 µM [inhibitor, single point]",
CCn1c(SCC(=O)Nc2ccccc2C(=O)OC)nc2c1c(=O)n(C)c(=O)n2C,inactive,
CCOC(=O)CCc1c(C)c2ccc(OCc3nn[nH]n3)c(C)c2oc1=O,active: 25.1 µM,
c1ccc(Nc2ncnc3ccc(-c4ccc5c(c4)OCO5)cc23)cc1,"inconclusive: 39.8 µM [inhibitor, single point]",
CCc1nc(OCc2ccco2)c2sc3nc4c(cc3c2n1)COC(C)(C)C4,"inconclusive: 25.1 µM [inhibitor, single point]",
CCc1ccc2[nH]c(=O)c(CN(CCCN3CCOCC3)C(=O)Nc3cccc(Cl)c3)cc2c1,inactive,
c1ccc(CNc2ncnc3c2cnn3-c2ccccc2)cc1,"inconclusive: 31.6 µM [inhibitor, single point]",
CCSc1nc(-c2ccc(OC)cc2)n(-c2nc3ccccc3s2)n1,"inconclusive: 39.8 µM [inhibitor, single point]",
CCOC(=O)N1CCN(c2cc3[nH]c(=S)[nH]c3cc2F)CC1,"inconclusive: 1.58 µM [inhibitor, partial curve]",
COc1ccccc1-c1ccc2ncnc(NCc3ccccc3)c2c1,"inconclusive: 39.8 µM [inhibitor, single point]",
COc1ccc(C2C3=C(CCCC3=O)Nc3nc4ccccc4n32)cc1OC (stereo not drawn),"inconclusive: 39.8 µM [inhibitor, single point]",
CCOc1ccccc1N1CCN(S(=O)(=O)CC)CC1,"inconclusive: 15.8 µM [inhibitor, partial curve]",
Cc1nc2scc(-c3ccccc3)c2c(=O)o1,inactive,
COc1ccccc1C1CC(=O)NC(C)=C1C(=O)OCC1CCCO1 (stereo not drawn),inactive,
COC(=O)c1oc2ccc(OC)cc2c1N,active: 31.6 µM,
CC(C)(C)OC(=O)N[C@@H](Cc1ccccc1)c1nnc(S(=O)(=O)Cc2ccccc2)o1,active: 1.26 µM,
COc1ccc(-c2nc(C#N)c(N3CCCCCC3)o2)cc1,active: 25.1 µM,
O=S1(=O)C=C(Sc2nc3ccccc3s2)c2ccccc21,"inconclusive: 0.501 µM [inhibitor, full curve]",
COCc1cc(C)nc(SCC(=O)c2ccc(O)c(O)c2)c1C#N,"inconclusive: 31.6 µM [inhibitor, single point]",
CN(c1cccc(NC(=O)CN2C(=O)c3ccccc3S2(=O)=O)c1)S(C)(=O)=O,inactive,
CCN1CCC[C@H]1CNC(=O)c1c(O)c(Cl)cc(Cl)c1OC,inactive,
c1cn(-c2cc(-c3ccc4c(c3)OCO4)ncn2)cn1,active: 25.1 µM,
CC(C)n1c(-c2ccc(N(C)C)cc2)nc2ccccc21,active: 31.6 µM,
COCCNc1nc(C)nc2c1nc(-c1ccccc1)n2CCCN1CCCCC1C (stereo not drawn),"inconclusive: 39.8 µM [inhibitor, single point]",

Compound,Potency,"activity change, negative = inhibition"
Cc1c(O)ccc(C(=O)CN2C(=O)c3ccccc3C2=O)c1O,"inconclusive: 20 µM [inhibitor, single point]",
COc1ccc(NC(=O)c2c(NC(=O)CNCc3ccco3)sc3c2CCC3)c(OC)c1,inactive,
CC(=O)Nc1ccc(NC(=O)c2cc(C)nn2-c2ccccc2)cc1,inactive,
O=C1CC(c2cccs2)c2cc3c(cc2N1)OCO3 (stereo not drawn),inactive,
COc1ccc(NCc2c(O)ccc3ccccc23)cc1,active: 3.16 µM,
COc1ccc2cc(CCNC(=O)C3CCCC3)c(=O)[nH]c2c1,"inconclusive: 0.0316 µM [inhibitor, full curve, poor fit]",
O=C(c1cc2c(ccc3ccccc32)oc1=O)N1CCN(CCO)CC1,active: 25.1 µM,
Nc1c2c(nc3ccn(-c4ccccc4)c(=O)c13)CCCCC2,"inconclusive: 39.8 µM [inhibitor, single point]",
Cc1ccc(S(=O)(=O)c2nc(N3CCOCC3)sc2Cl)cc1,"inconclusive: 25.1 µM [inhibitor, single point]",
COc1ccc(CC(=O)Nc2ccc(-c3nc4cc(C)ccc4o3)c(O)c2)cc1OC,active: 10 µM,
COc1cc2c(cc1OC)-c1cc(OCc3cccnc3)nc(=O)n1CC2,active: 3.98 µM,
CC(C)(C)c1onc(OCP(=O)(O)O)c1C[C@@H](N)C(=O)O,inactive,
CC(C)CCOCC(=O)Oc1ccccc1C(=O)O,inactive,
COc1cc(C)c(-c2cc(C(=O)O)c(C)o2)cc1C(C)C,"inconclusive: 25.1 µM [inhibitor, single point]",
Fc1ccccc1CSc1nc2ncccc2[nH]1,"inconclusive: 3.16 µM [inhibitor, full curve]",
COc1ccc(OC)c(S(=O)(=O)N2CCN(C34CC5CC(CC(C5)C3)C4)CC2)c1,inactive,
COC(=O)N1CCC[C@@]2(CCN(C(=O)Nc3cccc(C#N)c3)C2)C1,inactive,
CN1C=CC=C/C1=C1\SC(=S)N(C2CCCCC2)C1=O,"inconclusive: 3.98 µM [inhibitor, partial curve]",
c1csc(-c2nc3ccccc3[nH]2)c1,active: 25.1 µM,
O=C1c2ccccc2NC2CCCCCN12 (stereo not drawn),active: 15.8 µM,
O=C(O)c1cc(-c2ccc(-c3ccc(-c4cc(C(=O)O)c5cc(Cl)ccc5n4)cc3)cc2)nc2ccc(Cl)cc12,active: 3.16 µM,
CCOC(=O)c1c(-c2ccc(C)o2)csc1NC(=O)COC(=O)c1cccs1,"inconclusive: 39.8 µM [inhibitor, single point]",
Cc1cc(C(F)(F)F)n2ncc(-c3ccccc3)c2n1,"inconclusive: 39.8 µM [inhibitor, single point]",
Nc1ncnc2oc(-c3ccco3)c(-c3ccco3)c12,active: 5.01 µM,
N#CCCn1c(=O)c(-c2ccc(F)cc2)nc2cnc(N3CCOCC3)nc21,inactive,
O=C(NCc1ccccc1)N(Cc1cc2cc3c(cc2[nH]c1=O)OCO3)CC1CCCO1 (stereo not drawn),"inconclusive: 31.6 µM [inhibitor, single point]",

Compound,Potency,"activity change, negative = inhibition"
c1ccc2c(c1)CCN(c1nc3cc4c(cc3s1)OCO4)C2,active: 15.8 µM,
CN1CCN(c2c(F)cc3c(=O)c(C(=O)O)cn4c3c2SCC4)CC1,"inconclusive: 39.8 µM [inhibitor, single point]",
O=C1Nc2ccc(S(=O)(=O)NCc3ccccn3)c3cccc1c23,"inconclusive: 31.6 µM [inhibitor, single point]",
O=C(Nc1ccc(N2CCOCC2)cc1)Nc1ccc2nc(-c3ccco3)c(-c3ccco3)nc2c1,active: 25.1 µM,
Cc1c(C(=O)O)oc2c1C(O)CCC2 (stereo not drawn),"inconclusive: 31.6 µM [inhibitor, single point]",
Cc1ccccc1NC(=O)c1cccc2nccnc12,"inconclusive: 7.94 µM [inhibitor, single point]",
COCCn1c(N)c(C(=O)OCc2ccccc2)c2nc3ccccc3nc21,active: 31.6 µM,
CN(C)c1ccc(-c2nc(NCCN3CCOCC3)c3ccccc3n2)cc1,"inconclusive: 20 µM [inhibitor, partial curve]",
O=S(=O)(NCc1ccco1)c1ccc2c(c1)Cc1ccccc1-2,"inconclusive: 25.1 µM [inhibitor, partial curve]",
Cn1cccc1C(=O)N1CCC2(CCCN(C(=O)Nc3ccccc3)C2)CC1,inactive,
Cc1cccc(C2CC(c3ccccc3)Nc3ncnn32)c1 (stereo not drawn),"inconclusive: 12.6 µM [inhibitor, partial curve]",
C/C(=N/NS(=O)(=O)c1ccc(C)cc1)P(=O)(O)O,,inactive: -9.17% [at 11.4 µM]
COc1cccc(-c2cc(C(F)(F)F)nc(N3CCOCC3)n2)c1,"inconclusive: 39.8 µM [inhibitor, single point]",
CCCCC#Cc1nc(NC)c2ncn([C@@H]3O[C@@H](CO)[C@H](O)[C@H]3O)c2n1,inactive,
COc1ccc2c(C(F)(F)F)cc(=O)oc2c1C,"inconclusive: 3.98 µM [inhibitor, single point]",
COc1ccc(-c2nsc(SCC(=O)Nc3cc(C)on3)n2)cc1,"inconclusive: 39.8 µM [inhibitor, single point]",
CCCc1nc2oc3c(NCc4ccccn4)ncnc3c2c2c1COC(C)(C)C2,"inconclusive: 31.6 µM [inhibitor, single point]",
O=C(C1CCCCC1)N1CCN(c2ncccn2)CC1,inactive,
O=S1(=O)CCN2C(Cc3ccc(SC(F)F)cc3)=CSC2=N1,"inconclusive: 25.1 µM [inhibitor, single point]",
O=c1[nH]c2ccccc2nc1C(F)(F)C(F)F,"inconclusive: 1 µM [inhibitor, full curve]",
O=C(COc1ccccc1Cl)Nc1ccc2c(c1)OCCO2,inactive,
COCCn1c(SCC(=O)N2CCCC2)nnc1-c1ccoc1C,inactive,
Nc1c2c(nc3ccn(Cc4ccccc4)c(=O)c13)CCC2,inactive,
CS(=O)(=O)N(CC(=O)NCc1ccco1)Cc1ccc(Cl)cc1,"inconclusive: 31.6 µM [inhibitor, single point]",
COc1ccc(S(=O)(=O)Nc2nnc(C(C)C)s2)cc1,"inconclusive: 31.6 µM [inhibitor, single point]",
N#Cc1ccc(CSc2nnc(-c3cnccn3)o2)cc1,"inconclusive: 39.8 µM [inhibitor, single point]",
